Results as given in paper PMC6639331, “Reconstitution of recombinant human CCR4-NOT reveals molecular insights into regulated deadenylation” (Nature Communications, 2019).

Biological target: T1, NOT1:NOT2:NOT3:CAF40 subcomplex (full-length subunits) (human, UniProt A5YKK6; Q9NZN8; O75175; Q92600)
T1 construct: NOT1, human, full length; NOT2, human, full length; NOT3, human, full length; CAF40, human, full length; No removal of the tags of NOT1 is reported; also called NOT1:NOT2:NOT3:CAF40 complex; NOT1:NOT2:NOT3:CAF40 tetramer; source: Sf21 insect cells (baculovirus), purified (nickel IMAC); copies: + + +
Assay: SEC-MALS; reconstituted CCR4-NOT FULL, 40 ul at 0.9 mg/ml, Superose 6 5/150 in 10 mM HEPES/NaOH pH 7.5, 200 mM NaCl; SDS-PAGE with Coomassie staining of the complex
Settings: both partners purified

T1 sequence (A5YKK6 whole entry, chain 1 of 4): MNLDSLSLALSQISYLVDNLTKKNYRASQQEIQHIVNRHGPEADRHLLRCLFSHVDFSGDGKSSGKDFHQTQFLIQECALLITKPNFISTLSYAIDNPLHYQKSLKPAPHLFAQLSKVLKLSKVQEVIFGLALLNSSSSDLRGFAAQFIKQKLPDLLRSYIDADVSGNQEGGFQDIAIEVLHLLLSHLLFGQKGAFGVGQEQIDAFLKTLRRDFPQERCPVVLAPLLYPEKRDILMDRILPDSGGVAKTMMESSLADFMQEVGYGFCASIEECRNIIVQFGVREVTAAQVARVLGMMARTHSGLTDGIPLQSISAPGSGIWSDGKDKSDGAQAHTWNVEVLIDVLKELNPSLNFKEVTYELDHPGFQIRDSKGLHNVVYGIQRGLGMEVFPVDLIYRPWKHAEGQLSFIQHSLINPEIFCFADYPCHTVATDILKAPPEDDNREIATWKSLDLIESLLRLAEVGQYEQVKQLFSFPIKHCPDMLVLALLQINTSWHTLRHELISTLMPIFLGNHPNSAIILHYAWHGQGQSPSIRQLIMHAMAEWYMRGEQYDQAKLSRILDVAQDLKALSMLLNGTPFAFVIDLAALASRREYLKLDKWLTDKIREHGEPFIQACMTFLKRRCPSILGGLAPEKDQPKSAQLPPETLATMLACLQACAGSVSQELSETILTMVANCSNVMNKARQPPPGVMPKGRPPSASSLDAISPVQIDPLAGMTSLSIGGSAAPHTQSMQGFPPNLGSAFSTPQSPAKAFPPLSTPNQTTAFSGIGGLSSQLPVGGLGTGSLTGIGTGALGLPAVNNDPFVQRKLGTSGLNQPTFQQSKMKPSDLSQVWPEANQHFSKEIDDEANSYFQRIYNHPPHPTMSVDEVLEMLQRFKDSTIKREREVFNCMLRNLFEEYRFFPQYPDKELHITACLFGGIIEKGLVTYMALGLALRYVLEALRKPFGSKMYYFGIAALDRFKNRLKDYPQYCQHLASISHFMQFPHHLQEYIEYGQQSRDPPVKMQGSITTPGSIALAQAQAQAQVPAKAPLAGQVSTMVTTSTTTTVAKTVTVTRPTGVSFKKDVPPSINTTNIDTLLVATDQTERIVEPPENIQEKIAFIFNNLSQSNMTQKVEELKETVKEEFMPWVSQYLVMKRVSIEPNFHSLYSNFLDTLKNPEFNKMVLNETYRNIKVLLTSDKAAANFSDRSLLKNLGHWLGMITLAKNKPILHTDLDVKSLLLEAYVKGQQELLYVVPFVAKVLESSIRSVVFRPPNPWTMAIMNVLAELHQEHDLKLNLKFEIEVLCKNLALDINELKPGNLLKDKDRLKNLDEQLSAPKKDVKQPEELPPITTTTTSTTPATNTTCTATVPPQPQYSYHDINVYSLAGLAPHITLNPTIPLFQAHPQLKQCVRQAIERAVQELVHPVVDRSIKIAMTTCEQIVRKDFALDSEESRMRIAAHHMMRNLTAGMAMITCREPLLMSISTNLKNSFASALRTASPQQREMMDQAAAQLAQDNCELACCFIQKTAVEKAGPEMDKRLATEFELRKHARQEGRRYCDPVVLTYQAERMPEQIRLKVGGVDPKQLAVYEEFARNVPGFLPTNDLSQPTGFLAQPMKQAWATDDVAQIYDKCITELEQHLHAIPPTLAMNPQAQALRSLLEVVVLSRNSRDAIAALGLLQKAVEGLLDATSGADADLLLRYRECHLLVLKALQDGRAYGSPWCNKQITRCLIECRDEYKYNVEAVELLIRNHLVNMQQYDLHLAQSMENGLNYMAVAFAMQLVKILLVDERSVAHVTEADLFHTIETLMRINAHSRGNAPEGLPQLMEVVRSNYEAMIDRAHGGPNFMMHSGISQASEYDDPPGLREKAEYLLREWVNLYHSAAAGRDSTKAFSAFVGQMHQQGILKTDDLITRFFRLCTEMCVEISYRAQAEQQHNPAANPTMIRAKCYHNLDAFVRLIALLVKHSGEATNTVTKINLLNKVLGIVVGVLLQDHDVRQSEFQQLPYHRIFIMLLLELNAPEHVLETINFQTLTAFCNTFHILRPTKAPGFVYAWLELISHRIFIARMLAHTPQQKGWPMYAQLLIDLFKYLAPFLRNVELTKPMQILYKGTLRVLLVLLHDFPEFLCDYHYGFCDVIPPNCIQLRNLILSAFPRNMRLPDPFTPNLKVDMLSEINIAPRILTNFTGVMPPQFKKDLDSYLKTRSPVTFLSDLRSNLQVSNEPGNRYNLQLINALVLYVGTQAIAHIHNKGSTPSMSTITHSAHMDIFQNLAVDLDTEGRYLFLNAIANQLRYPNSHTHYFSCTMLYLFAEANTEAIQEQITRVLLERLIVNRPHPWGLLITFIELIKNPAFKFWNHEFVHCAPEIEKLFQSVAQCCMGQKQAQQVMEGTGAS
T1 sequence (Q9NZN8 whole entry, chain 2 of 4, further chain): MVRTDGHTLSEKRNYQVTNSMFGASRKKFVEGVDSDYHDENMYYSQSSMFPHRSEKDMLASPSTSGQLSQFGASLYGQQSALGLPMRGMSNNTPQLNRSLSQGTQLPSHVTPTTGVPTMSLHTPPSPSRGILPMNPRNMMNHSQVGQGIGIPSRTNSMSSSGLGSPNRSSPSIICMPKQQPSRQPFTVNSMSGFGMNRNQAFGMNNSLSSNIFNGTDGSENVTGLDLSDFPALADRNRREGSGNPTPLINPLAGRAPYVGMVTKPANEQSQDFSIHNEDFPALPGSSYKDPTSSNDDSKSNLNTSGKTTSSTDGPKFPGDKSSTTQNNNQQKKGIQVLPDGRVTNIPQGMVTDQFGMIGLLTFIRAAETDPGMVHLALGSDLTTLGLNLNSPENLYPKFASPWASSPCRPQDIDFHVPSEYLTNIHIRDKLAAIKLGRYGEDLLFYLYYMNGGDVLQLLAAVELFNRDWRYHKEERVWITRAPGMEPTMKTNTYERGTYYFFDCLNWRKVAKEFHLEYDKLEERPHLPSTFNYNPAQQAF
T1 sequence (O75175 whole entry, chain 3 of 4, further chain): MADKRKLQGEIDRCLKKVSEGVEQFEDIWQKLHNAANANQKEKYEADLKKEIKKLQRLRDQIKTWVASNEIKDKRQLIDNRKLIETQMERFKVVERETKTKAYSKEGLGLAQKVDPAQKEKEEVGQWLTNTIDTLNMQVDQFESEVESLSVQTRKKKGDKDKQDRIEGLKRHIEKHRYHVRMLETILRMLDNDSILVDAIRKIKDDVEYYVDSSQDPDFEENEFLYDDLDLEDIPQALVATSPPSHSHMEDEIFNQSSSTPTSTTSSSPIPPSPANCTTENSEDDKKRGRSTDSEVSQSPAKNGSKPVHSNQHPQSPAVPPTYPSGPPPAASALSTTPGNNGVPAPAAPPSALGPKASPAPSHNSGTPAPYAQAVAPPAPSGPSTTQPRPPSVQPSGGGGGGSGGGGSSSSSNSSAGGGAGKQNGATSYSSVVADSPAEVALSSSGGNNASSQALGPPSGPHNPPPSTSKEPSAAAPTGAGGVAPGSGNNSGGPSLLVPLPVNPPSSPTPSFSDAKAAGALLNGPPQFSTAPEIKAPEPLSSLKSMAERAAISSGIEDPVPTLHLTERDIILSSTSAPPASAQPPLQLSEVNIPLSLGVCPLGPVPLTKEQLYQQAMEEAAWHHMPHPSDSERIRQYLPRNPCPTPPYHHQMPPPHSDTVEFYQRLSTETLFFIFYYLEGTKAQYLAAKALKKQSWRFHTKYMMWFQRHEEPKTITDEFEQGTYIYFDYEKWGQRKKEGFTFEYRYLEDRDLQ
T1 sequence (Q92600 whole entry, chain 4 of 4, further chain): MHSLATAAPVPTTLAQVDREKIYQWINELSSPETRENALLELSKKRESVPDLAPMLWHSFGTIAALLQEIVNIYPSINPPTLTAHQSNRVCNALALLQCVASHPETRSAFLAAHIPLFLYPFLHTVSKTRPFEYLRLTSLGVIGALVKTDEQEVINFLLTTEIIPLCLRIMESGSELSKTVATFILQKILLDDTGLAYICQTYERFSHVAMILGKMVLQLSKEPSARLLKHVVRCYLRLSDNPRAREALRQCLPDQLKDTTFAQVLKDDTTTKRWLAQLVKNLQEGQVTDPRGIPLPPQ

stoichiometry N: 1
B1: NOT10:NOT11 heterodimer (complex)
chain 1: not shown
chain 2: not shown
notes: NOT10, human, […]; NOT11, human, […]; also called NOT10:NOT11 module; source: E. coli BL21(DE3) Star, co-expressed, purified (IMAC, SEC); not shown: MBP, N-terminal, cleaved; His6, C-terminal, cleaved
